Source: PubChem BioAssay AID1345083 (National Center for Advancing Translational Sciences (NCATS), 2018)
The campaign covered roughly 94,000 compounds. About 6,200 (6.6%) were called active. The shares of active, inactive and inconclusive entries below differ from those in the screen. Calls come from the whole dose curve; as a rule, active = well fitted inhibition curve with a large enough effect; inconclusive = small, poorly fitted or top-dose-only effect; inactive = flat fitted curve, though single readings scatter. Potencies of inconclusive entries are doubtful fits and often do not repeat.

Test: Cytotoxic Profiling in HEK 293 Cell Line of Diverse Libraries Using Quantitative High-Throughput Screening; note: nearly all actives have a fitted effect of over 60% in size
Settings: HEK 293 viability, ATP luminescence (CellTiter-Glo), 48-72 h; series mostly up to 115 µM
In short: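 HEK 293 cells seeded at 250 cells/well were exposed to compound for 48 or 72 hr at 37 degree Celsius. Viability taken as ATP content by CellTiter-Glo luminescence.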
Potency is the fitted concentration of half-maximal effect; tags give direction and shape of the fitted curve.

Row | SMILES | Potency
1 | Cc1cnn(CC(=O)N2CC(F)(F)C[C@H]2c2nc(C3CC3)no2)c1 | inactive
2 | C#CCNC(=O)c1nc(-c2ccc(Cl)cc2)c2ccccn12 | inconclusive: 20 µM [inhibitor, full curve]
3 | O=C(NCc1ccccc1)N1CCCC(c2nccn2CC2CCC2)C1 (configuration not stated) | inconclusive: 39.8 µM [inhibitor, full curve]
4 | CCc1ccc(C(=O)NCCn2ccn3nc(-c4ccc(F)cc4)cc3c2=O)cc1 | inactive
5 | COc1ccc(OC)c(NC(=O)C2(CCO)CCN(c3ncccn3)C2)c1 (configuration not stated) | inactive
6 | COc1ccc(C(=O)N[C@@H]2CCC[C@@H]2C(=O)NCCCc2ccccc2)cc1 | inactive
7 | CN1CCCCCCN(S(=O)(=O)c2cccs2)[C@H]2CCC[C@H]2C1=O | inconclusive: 89.1 µM [inhibitor, single point]
8 | COc1ccc(C(=O)NC2CCN(c3nccc(Nc4ccc(C)cc4)n3)CC2)cc1 | active: 35.5 µM
9 | CC(C)(C)C(=O)N[C@H]1C[C@@H](Cc2cc(-c3ccccc3)on2)C1(C)C | inconclusive: 50.1 µM [inhibitor, full curve, poor fit]
10 | COc1cccc(-c2ccc3onc(C)c3n2)c1 | inconclusive: 112 µM [inhibitor, partial curve, poor fit]
11 | CCCCN1CCN(C(=O)C2CCCN(c3cnn(Cc4ccccc4)c(=O)c3)C2)CC1 (configuration not stated) | inconclusive: 89.1 µM [inhibitor, single point]
12 | COc1ccc(-c2noc([C@@H]3C[C@H](NS(=O)(=O)c4cccs4)CN3C)n2)cc1 | inconclusive: 10 µM [inhibitor, full curve, poor fit]
13 | CCCCNC(=O)c1cc2n(n1)CC(c1ccc(Cl)cc1)OC2 (configuration not stated) | inconclusive: 50.1 µM [inhibitor, partial curve, poor fit]
14 | COCCN1CCCC[C@]2(C[C@H](CO)[C@H](c3ccccc3)N2C(=O)OCC(C)C)C1=O | inconclusive: 89.1 µM [inhibitor, single point]
15 | CNC(=O)c1nc2cccnc2n(CCOC)c1=O | inactive
16 | COc1ccc(-c2cc(C[C@H]3CNCC[C@H]3CC(=O)N3CCC(Cc4ccccc4)CC3)no2)cc1 | inconclusive: 28.2 µM [inhibitor, full curve, poor fit]
17 | Cc1ccc(NC(=O)c2cc3c(N(C)Cc4ccccc4)nc(C)cn3n2)c(F)c1 | inconclusive: 79.4 µM [inhibitor, single point]
18 | CCn1cc(-c2ccncc2)cc1C(=O)NCc1ccc(SC)cc1 | inconclusive: 56.2 µM [inhibitor, partial curve, poor fit]
19 | CCc1ccc(CNC(=O)c2ccc3c(c2)N(C)C2CCCCN2C3=O)cc1 (configuration not stated) | inconclusive: 8.91 µM [inhibitor, partial curve, poor fit]
20 | O=C(CN1C(=O)C(Oc2ccc(F)cc2)C12CCCCC2)NCC1CC1 (configuration not stated) | inconclusive: 89.1 µM [inhibitor, single point]
21 | O=C(Nc1cccc(F)c1)[C@@H]1C[C@@H](c2ccc(F)cc2)N([S+](=O)([O-])c2ccccc2)C1 | active: 35.5 µM

Row | SMILES | Potency
22 | CC1(C(=O)NCCN2CCOCC2)CCCc2cnc(NCc3ccccc3)nc21 (configuration not stated) | inactive
23 | Cn1cccc1CN1CCC2(C1)C(=NC1CCCCC1)NC(=O)N2c1cc(F)cc(F)c1 (configuration not stated) | inconclusive: 100 µM [inhibitor, single point]
24 | COc1ccc(/C=C/c2ccc3c(c2)C(=O)N2CC[C@H](NC(=O)CCC(=O)O)[C@H]2C(=O)N3)cc1 | inactive
25 | COCCCn1c(C)cc(C(=O)NCCc2noc(-c3ccccc3)n2)c1C | active: 39.8 µM
26 | COCCn1ncc(N2CCC(C(=O)NCC3CCN(Cc4cccc(OC)c4)CC3)C2)cc1=O (configuration not stated) | inactive
27 | CCC(C)NC(=O)Cn1c(C)ccc(NC(=O)Nc2ccc(C)cc2)c1=O (configuration not stated) | inconclusive: 39.8 µM [inhibitor, full curve, poor fit]
28 | COc1ccc(CCC2CCCN(S(=O)(=O)N(C)C)C2)cc1 (configuration not stated) | inconclusive: 31.6 µM [inhibitor, full curve]
29 | O=C1CCCN1CCCN1C(=O)[C@H]2CN(Cc3ccc(Br)cc3)C[C@H]2C1=O | inconclusive: 56.2 µM [inhibitor, partial curve, poor fit]
30 | CC(C)CNC(=O)c1ccc2c(c1)NC(C)(CNc1ccccc1)CO2 (configuration not stated) | inconclusive: 89.1 µM [inhibitor, partial curve, poor fit]
31 | CCOC1CCOC2(CCN(C(=O)c3cccc(C)c3)CC2)C1 (configuration not stated) | inactive
32 | Cc1cc(C)cc(N2CCN(Cc3cn(-c4ccccc4)nn3)CC2=O)c1 | inconclusive: 44.7 µM [inhibitor, partial curve, poor fit]
33 | CC1(C(=O)NC2CCOCC2)CCCc2cnc(NCc3ccccc3)nc21 (configuration not stated) | inconclusive: 112 µM [inhibitor, single point]
34 | COc1ccccc1-c1ccc(CN2CCC(NC(=O)c3ccccc3Cl)C2)cc1 (configuration not stated) | inconclusive: 50.1 µM [inhibitor, partial curve, poor fit]
35 | Cc1cccc(NC(=O)Cn2nc3n(c2=O)CCCC3)c1C | inactive
36 | C[S+](=O)([O-])N1CCCC2(Cc3ccccc3CN2C(=O)c2ccc(Cl)cc2)C1 (configuration not stated) | inconclusive: 35.5 µM [inhibitor, full curve]
37 | CCOc1ccccc1CNC(=O)c1cc2cn(C(C)C)cc2s1 | inconclusive: 89.1 µM [inhibitor, single point]
38 | Cc1ccccc1N(C)C1CN(Cc2cccs2)C1 | inconclusive: 44.7 µM [inhibitor, partial curve, poor fit]
39 | FC(F)(F)c1ccc(O[C@H]2COCCN(c3nc4ccccc4o3)C2)nc1 | active: 100 µM
40 | CC1=C[C@@H](CO)[C@H](C(C)C)C[C@H]1CC(=O)NCc1cc(F)cc(F)c1 | inconclusive: 126 µM [inhibitor, single point]
41 | COc1ccc(Cl)cc1C(=O)N1CCC2(CC1)NC(=O)N(c1ccccc1)N2 | inconclusive: 39.8 µM [inhibitor, partial curve, poor fit]
42 | O=C(NCC1CCOCC1)[C@@H]1C[C@@H](c2ccc(F)cc2)N([S+](=O)([O-])c2cccnc2)C1 | inconclusive: 89.1 µM [inhibitor, partial curve, poor fit]
